Test results: ChEMBL document CHEMBL1201862, “PubChem BioAssay data set” (2004)
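Cells were grown in 96-well plates and exposed to each compound for 48 hours at five concentrations; endpoints were interpolated linearly between bracketing concentrations, or set to the highest concentration if not reached. Here, GI50 denotes the concentration required for 50% inhibition of growth.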 The source made the active and inactive calls. Cut-off read from the data, not from the text of the source: active = GI50 up to about 1.1 µM and inactive = higher. Peptide text beside a SMILES is read from it. * marks the point of attachment. Boc = CC(C)(C)OC(=O)*

The compounds below were run on NCI-H322M (assay: NCI anticancer screen, dose series, 48 h).

Question: Which GI50 does the source give for `O=c1c(Cc2ccc(Cc3c(O)oc4ccccc4c3=O)cc2)c(O)oc2ccccc12` here?
Answer: inactive: > 100 µM

Question: With `NS(=O)(=O)c1ccc(NC(=O)N/N=C/c2ccccc2[N+](=O)[O-])cc1` as the compound, how does the GI50 read?
Answer: inactive: 53.7 µM

Question: Which GI50 does the source give for `COc1ccccc1Nc1nc(N)nc(N)c1N` here?
Answer: inactive: > 100 µM

Question: Which GI50 does the source give for `Cc1cc(CNC(=O)OCc2ccccc2)c(C)c2c1Oc1ccccc1O2` here?
Answer: inactive: > 100 µM

Question: For `Cc1ccc(NC(=O)CC2SC(Nc3cccc(Cl)c3C)=NC2=O)cc1` (stereo not drawn), which GI50 is on record?
Answer: inactive: > 100 µM

Question: For `CN(C)c1ccc(/C=C2\CCCCCC2=O)cc1`, which GI50 is on record?
Answer: inactive: > 100 µM

Question: With `CC(=O)Oc1c(N2CCCCC2)c(C(=O)c2ccccc2)c(O)c2ccn(N(C)C)c12` as the compound, how does the GI50 read?
Answer: inactive: 10.8 µM

Question: Which GI50 does the source give for `CC(=O)NC(=O)/N=C1\NCCC(=O)N1CCc1c[nH]c2ccccc12` here?
Answer: inactive: > 100 µM

Question: For `O=S(=O)(O)c1cc(/N=N/c2cc(S(=O)(=O)O)c3cccnc3c2O)ccc1/C=C/c1ccc(/N=N/c2cc(S(=O)(=O)O)c3cccnc3c2O)cc1S(=O)(=O)O`, which GI50 is on record?
Answer: inactive: > 100 µM

Question: How did the GI50 turn out when `CC1=C(C(=O)OCCc2ccc([N+](=O)[O-])cc2)C(c2ccccc2[N+](=O)[O-])C(C(=O)OC(C)C)=C(C)N1` (stereo not drawn) was run?
Answer: inactive: 35.8 µM

Question: For `COC(=O)C1=COC(OC2OC(CO)C(O)C(O)C2O)C2C3CN4CCc5c([nH]c6ccccc56)C4(CC12)O3` (stereo not drawn), which GI50 is on record?
Answer: inactive: > 100 µM

Question: For `CN/N=C(\C(=O)Nc1ccc([N+](=O)[O-])cc1[N+](=O)[O-])C1NC(=O)NC1=O` (stereo not drawn), which GI50 is on record?
Answer: inactive: > 100 µM

Question: How did the GI50 turn out when `Nc1ccc(Oc2ccc(C34CC5CC(C3)CC(c3ccc(Oc6ccc(N)cc6C(F)(F)F)cc3)(C5)C4)cc2)c(C(F)(F)F)c1` was run?
Answer: inactive: 20 µM

Question: Which GI50 does the source give for `Cc1cc(C(C)(C)C)cc(Cc2cc(C(C)(C)C)cc(Cc3cc(C(C)(C)C)cc(C)c3O)c2O)c1O` here?
Answer: inactive: 9.35 µM

Question: Which GI50 does the source give for `CCC(=N\NC(N)=S)/C(C)=N/O` here?
Answer: inactive: > 100 µM

Question: Which GI50 does the source give for `Cc1ccc(N/C(=C(/C(Cl)=C(Cl)Cl)[N+](=O)[O-])n2nnc3ccccc32)cc1` here?
Answer: inactive: 19.5 µM

Question: Which GI50 does the source give for `CSc1ccc(Cc2cc(C(C)(C)C)cc(C(C)(C)C)c2O)cc1` here?
Answer: inactive: 18.1 µM

Question: `CCn1c(O)c(C(=O)NC(C)c2ccc([N+](=O)[O-])cc2)c(=O)n(CC)c1=S` (stereo not drawn) was tested. Which GI50 did it give?
Answer: inactive: 2.85 µM

Question: For `Cc1c(Cl)cccc1NC(=O)/C=C/c1ccccc1`, which GI50 is on record?
Answer: inactive: 76.2 µM

Question: With `CN(C)CCNc1ccc(NCC[N+](C)(C)Cc2ccc([N+](=O)[O-])cc2)c2c1C(=O)c1c(O)ccc(O)c1C2=O` as the compound, how does the GI50 read?
Answer: inactive: 46 µM

Question: For `CC(=O)Oc1ccc2c(c1)C(=O)c1nc(C)c(C)nc1C2=O`, which GI50 is on record?
Answer: inactive: 53.3 µM

Question: Which GI50 does the source give for `c1ccc(C2CC(N3CCOCC3)=Nc3ccccc3N2)cc1` (stereo not drawn) here?
Answer: inactive: > 100 µM

Question: With `CCOC(=O)CSc1nc(N)c2c(-c3ccc(OC)c(OC)c3)c3c(nc2n1)CCCC3` as the compound, how does the GI50 read?
Answer: inactive: > 100 µM

Question: For `O=C(N/C(=C\c1cccc([N+](=O)[O-])c1)c1nc2c(O)nc(S)nc2[nH]1)c1ccccc1`, which GI50 is on record?
Answer: inactive: > 100 µM

Question: For `Cc1cc2cc3c(O)nc(O)nc3nc2cc1C`, which GI50 is on record?
Answer: inactive: > 100 µM

Question: How did the GI50 turn out when `Nc1ccc(OCCCc2c(-c3ccccc3)[nH]c(N)nc2=O)cc1` was run?
Answer: inactive: 60.7 µM

Question: How did the GI50 turn out when `Nc1ccc(Oc2ccc(C3(c4ccc(Oc5ccc(N)cc5)cc4)C4CC5CC(C4)CC3C5)cc2)cc1` was run?
Answer: active: 0.133 µM

Question: How did the GI50 turn out when `COC(=O)C1=C(C(=O)OC)C2(CCCCCC2=O)OC1=O` (stereo not drawn) was run?
Answer: inactive: > 100 µM

Question: With `COC(=O)C1(Cc2ccc3c(c2)CCC3)Cc2ccccc2C1` as the compound, how does the GI50 read?
Answer: inactive: 58.3 µM

Question: With `Cn1c(=O)oc2nc(-c3ccccc3)cc(C(F)(F)F)c21` as the compound, how does the GI50 read?
Answer: inactive: > 100 µM

Question: How did the GI50 turn out when `CSc1nc2c(nc(N)n2C2OC(COC(C)=O)C(OC(C)=O)C(OC(C)=O)C2OC(C)=O)c(=O)n1C` (stereo not drawn) was run?
Answer: inactive: > 100 µM

Question: `CN(Cc1cnc2nc(N)nc(N)c2n1)c1ccc(C(=O)NC(CCC(=O)O)C(=O)O)cc1` (stereo not drawn) was tested. Which GI50 did it give?
Answer: active: 0.114 µM

Question: `CCN(CC)C(=S)N/N=C(/C)c1cccc(/C(C)=N\NC(=S)N(CC)CC)n1` was tested. Which GI50 did it give?
Answer: active: 0.91 µM

Question: `c1ccc(C2=NNC3c4ccccc4-c4ccccc4N3C2)cc1` (stereo not drawn) was tested. Which GI50 did it give?
Answer: inactive: 45.6 µM

Question: How did the GI50 turn out when `CCCNC(=O)c1cc(NC(=O)c2cc(NC(=O)CCS(=O)(=O)OC)cn2C)cn1C` was run?
Answer: inactive: 21.3 µM

Question: With `O=S1(=O)NN=C(NCc2ccc(Cl)cc2)c2ccccc21` as the compound, how does the GI50 read?
Answer: inactive: > 100 µM

Question: How did the GI50 turn out when `CCCCCCCCCCCC(=O)OCC1OC(n2cc(F)c(=O)[nH]c2=O)C(NC(=O)OCc2ccccc2)C(O)C1O` (stereo not drawn) was run?
Answer: inactive: 20.1 µM

Question: Which GI50 does the source give for `N#C/C(=C\c1c(O)cc(O)cc1O)C(N)=O` here?
Answer: inactive: > 100 µM

Question: How did the GI50 turn out when `CC1=C(C(=O)Nc2ccc([N+](=O)[O-])cc2)C(c2ccccc2O)C(C(=O)Nc2ccc([N+](=O)[O-])cc2)=C(C)N1` was run?
Answer: inactive: 25.5 µM

Question: `CCOC(=O)C(CC(C)C)NC(=O)C(Cc1ccccc1)NC(=O)CNC(=O)OC(C)(C)C` (stereo not drawn) (Boc-Gly-Phe-Leu-OEt; configuration not given here) was tested. Which GI50 did it give?
Answer: inactive: 24.4 µM

Question: `COC[C@@H]1Cc2cc(OC)c3c(c2[C@H](c2ccc(OC)c(OC)c2)[C@H]1COC)OCO3` [HYPOPHYLLANTHIN] was tested. Which GI50 did it give?
Answer: inactive: > 100 µM

Question: Which GI50 does the source give for `Fc1ccc2c(c1)nc1n2C(c2c(F)cccc2F)SC1` (stereo not drawn) here?
Answer: inactive: 78.9 µM

Question: For `COC(=O)C(Cc1cn(C(C)n2cc(CC(NC(C)=O)C(=O)OC)c3ccccc32)c2ccccc12)NC(C)=O` (stereo not drawn), which GI50 is on record?
Answer: inactive: > 100 µM

Question: Which GI50 does the source give for `O=C(O)c1ccccc1/C=N\N(CCO)C1=NCCN1` here?
Answer: inactive: > 100 µM

Question: With `CN1CCC/C1=C1/C(=O)N(c2ccccc2)N=C1c1ccc[nH]1` as the compound, how does the GI50 read?
Answer: inactive: > 100 µM

Question: `CN(/N=C/C=N/N(C)C1=NCCN1)C1=NCCN1` was tested. Which GI50 did it give?
Answer: inactive: > 100 µM

Question: `COC(=O)[C@@]12C=CC(=O)[C@H]3C[C@@H](C(C(C)C)C1)[C@]32OC` (stereo partly drawn) was tested. Which GI50 did it give?
Answer: inactive: > 100 µM

Question: `O=C(O)C1OC1(c1cccc(Cl)c1)c1ccccc1Cl` (stereo not drawn) was tested. Which GI50 did it give?
Answer: inactive: 42.1 µM

Question: How did the GI50 turn out when `Oc1ccc(Cn2c(-c3ccc(O)cc3)nc3ccccc32)cc1` was run?
Answer: inactive: > 100 µM

Question: How did the GI50 turn out when `Cc1ccc(NC(S)=Nc2c(C)n(C)n(-c3ccccc3)c2=O)cc1` was run?
Answer: inactive: > 100 µM

Question: Which GI50 does the source give for `CNS(=O)(=O)NNS(=O)(=O)c1ccc(OC)cc1` here?
Answer: inactive: > 100 µM

Question: `Cc1ccccc1NC(=O)C1C(=O)N(c2ccccc2C)C(=O)/C1=N\NC(N)=O` (stereo not drawn) was tested. Which GI50 did it give?
Answer: inactive: > 100 µM

Question: For `Cc1cc(-c2nc3ccccc3s2)ccc1N`, which GI50 is on record?
Answer: inactive: 48.1 µM

Question: For `CCOC(=O)C1S/C(=N\c2cccc(Cl)c2C)N=C1C` (stereo not drawn), which GI50 is on record?
Answer: inactive: 34.9 µM

Question: How did the GI50 turn out when `CC(C)C(/C=C/c1ccc(Br)cc1)=N\NC(N)=O` was run?
Answer: inactive: > 100 µM

Question: `CN(C)CCOc1ccc2[nH]c(C(=O)N3CC(CCl)c4c3cc([N+](=O)[O-])c3ccccc43)cc2c1` (stereo not drawn) was tested. Which GI50 did it give?
Answer: inactive: 1.81 µM

Question: How did the GI50 turn out when `Cc1ccc(OCC2CO2)c(Br)c1` (stereo not drawn) was run?
Answer: inactive: 81.5 µM

Question: Which GI50 does the source give for `O=C(Nc1cc2c(=O)[nH]c3ccccc3c2oc1=O)c1cnccn1` here?
Answer: inactive: > 100 µM

Question: For `COc1ccc(C2ON(c3ccccn3)CC=C2C)cc1` (stereo not drawn), which GI50 is on record?
Answer: inactive: > 100 µM

Question: For `O=C(O)CCC(=O)c1ccc2sc3ccccc3c2c1`, which GI50 is on record?
Answer: inactive: > 100 µM

Question: `COc1cc2c(cc1C[N+](C)(C)CSc1ccccc1)-c1ccccc1CC2` was tested. Which GI50 did it give?
Answer: inactive: 13.1 µM

Question: `COc1ccc(C2CC(=O)CC(c3ccc(OC)cc3)C23C(=O)NC(=O)NC3=O)cc1` (stereo not drawn) was tested. Which GI50 did it give?
Answer: inactive: 21.6 µM

Question: `O=C(O)c1cc(/N=N/c2ccc([As](=O)(O)O)cc2)ccc1O` was tested. Which GI50 did it give?
Answer: inactive: > 100 µM
